# PubChem BioAssay AID485281 (National Center for Advancing Translational Sciences (NCATS), 2010)
# The campaign covered roughly 350,000 compounds. About 260 (0.074%) were called active. The inconclusive results got no clear call from the source; some entries with a clear call stand among them for comparison. The call rests on the fitted dose curve; in most records, active means well fitted inhibition curve with a large enough effect; inconclusive means small, poorly fitted or top-dose-only effect; inactive means no such curve, though single readings can be large or run the other way. A potency beside an inconclusive call is a rough fit, not a confirmed value.
# Target: Ferritin light chain (Equus caballus) (UniProt P02791)
# Assay: qHTS Assay for Identification of Novel General Anesthetics; further: nearly all actives have a fitted effect of over 20% in size
# Conditions: apoferritin/1-aminoanthracene competitive binding, fluorescence; activity change, negative = displacement: at 77.5 µM (top of the series)
# Procedure, shortened: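 Horse-spleen apoferritin (10 uM) in 50% saturated 1-aminoanthracene in PBS was incubated 10 min at room temperature with compound. Fluorescence (ex 380, em 535 nm) was normalized to free and bound 1-AMA, with concentration-response fitted by a four-parameter Hill equation.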
# On the % scale 0 is the no-effect control and ±100 the full control effect; potency means the concentration at half of the fitted maximal effect; tags describe the fitted curve by direction and shape.
# UniProt P02791, sequence (P02791 whole entry, looked up): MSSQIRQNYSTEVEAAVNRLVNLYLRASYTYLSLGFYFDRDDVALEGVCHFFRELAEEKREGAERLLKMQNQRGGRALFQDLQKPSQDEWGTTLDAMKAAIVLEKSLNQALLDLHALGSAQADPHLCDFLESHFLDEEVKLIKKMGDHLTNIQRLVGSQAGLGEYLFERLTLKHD
Compound,Potency,"activity change, negative = displacement"
CC(C)(C)c1csc(NC(=O)c2ccc3nccnc3c2)n1,"inconclusive: 39.8 µM [inhibitor, partial curve]",
Cc1ccc(CSc2ncn(-c3ccccc3)n2)cc1,"inconclusive: 22.4 µM [inhibitor, partial curve]",
O=C(C(NS(=O)(=O)c1cccc2nsnc12)c1ccccc1)N1CCN(c2ccccc2)CC1 (centres undefined),"inconclusive: 28.2 µM [inhibitor, partial curve]",
FC(F)(F)c1cccc(NCc2n[nH]c(=S)n2C2CCCCC2)c1,"inconclusive: 31.6 µM [inhibitor, partial curve]",
Cc1ccc(Cl)cc1NC(=S)NCCCSC1CCCCC1,,inactive: -8.25%
Clc1ccc(CN=C2Nc3ccccc3CS2)cc1,"inconclusive: 3.98 µM [inhibitor, full curve]",
Oc1sc(C=Nc2ccc(F)cc2)c2ccccc12,,inactive: -5.73%
CCc1c(C(=O)NN2C(=O)C3CCCCC3C2=O)csc1C (centres undefined),"inconclusive: 56.2 µM [inhibitor, single point]",
O=C(c1cccc(S(=O)(=O)N2CCCC2)c1)c1cccc(S(=O)(=O)N2CCCC2)c1,"inconclusive: 35.5 µM [inhibitor, partial curve]",
O=C(O)COc1ccccc1C(Nc1cccnc1)c1cc(Cl)c2cccnc2c1O (centres undefined),active: 28.2 µM,
Cc1cccc(Cn2cc3c(=O)n(CC(=O)Nc4cccc(C)c4C)nc-3c3cc(F)ccc32)c1,,inactive: -3.49%
Cc1cccc(CN(C(=S)Nc2c(C)cccc2C)c2cccnc2)c1,"inconclusive: 28.2 µM [inhibitor, partial curve]",
CC(=O)Nc1ccc(C(=O)N/N=C(\C)CC(=O)Nc2ccc(OCc3ccccc3)cc2)cc1,"inconclusive: 22.4 µM [inhibitor, partial curve]",
Cn1c(SCc2cccc([N+](=O)[O-])c2)nc2c(c1=O)SCC2,"inconclusive: 39.8 µM [inhibitor, partial curve]",
CCOc1ccccc1CNC(=O)CN1C(=O)c2cccnc2Oc2ccc(Cl)cc21,"inconclusive: 44.7 µM [inhibitor, partial curve]",
Cc1cccc(NCCC(=O)c2ccc([N+](=O)[O-])cc2)c1C,"inconclusive: 25.1 µM [inhibitor, partial curve]",
O=C(Cc1ccccc1)O/N=C1\CCCc2ccccc21,"inconclusive: 28.2 µM [inhibitor, partial curve]",
CS(=O)(=O)N1CCN(C(=O)CCc2ccccc2)CC1,,inactive: -13.4%
CCOc1ccc(/C=C2\SC(=S)N(CCCC(=O)NCCCN3CCOCC3)C2=O)cc1,,inactive: -2.84%
